One may read the EC50 (read off the curve) as the midpoint of the concentration-response curve. Broadly, the Kd is the constant that tells how readily two partners part at equilibrium. Usually koff stands for a measure of how fast the partners let go of each other. The kon is the rate constant with which the complex forms.

The target in one assay is T1, murine CD33-His protein (murine, UniProt Q63994 18-240, limits assumed).
T1 construct: also called murine CD33 protein
T1 sequence (looked up): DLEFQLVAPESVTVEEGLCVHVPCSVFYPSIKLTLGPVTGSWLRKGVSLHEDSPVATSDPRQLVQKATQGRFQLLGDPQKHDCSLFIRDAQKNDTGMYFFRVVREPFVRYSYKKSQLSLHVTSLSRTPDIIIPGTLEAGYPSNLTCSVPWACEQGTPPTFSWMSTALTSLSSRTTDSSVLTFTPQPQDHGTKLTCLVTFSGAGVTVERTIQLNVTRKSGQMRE
Description: ELISA on coated murine CD33-his. For orientation: ELISA stands for enzyme-linked immunosorbent assay.

Another assay deals with T2, human CD33-C2-his (human, UniProt P20138 136-260).
T2 construct: expressed in HEK293E; also called hCD33-C2-his; human CD33 protein C2-domain; not shown: His tag
Description: ELISA on coated human CD33-C2-his.

Another assay concerns the target T3, monkey CD33-his protein (monkey).
T3 construct: bought protein; also called monkey CD33 protein (Sino Biological, Cat. No. 50712-M08H)
Description: SPR (Biacore), antibody captured on Protein A chip, monkey CD33 analyte.

Another assay concerns the target T4, human CD33-his protein (human, UniProt P20138 18-259).
T4 construct: range 18-259; bought protein; also called hCD33-his; recombinant human CD33-his; not shown: His tag
Description: SPR (Biacore), antibody captured on Protein A chip, human CD33-his analyte. (Surface plasmon resonance follows binding to a sensor surface in real time, without labels.)

Sequence of human CD33-his protein (P20138 18-259 limits assumed): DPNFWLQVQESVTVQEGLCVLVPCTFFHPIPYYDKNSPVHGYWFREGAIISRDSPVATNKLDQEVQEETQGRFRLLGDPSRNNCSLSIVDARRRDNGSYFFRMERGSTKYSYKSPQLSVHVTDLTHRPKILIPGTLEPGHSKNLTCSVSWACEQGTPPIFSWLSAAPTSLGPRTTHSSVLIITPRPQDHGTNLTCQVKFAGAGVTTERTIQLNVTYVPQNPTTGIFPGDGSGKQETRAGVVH
Sequence of human CD33-C2-his (P20138 other isoform, or with tags, fused parts or gaps limits assumed): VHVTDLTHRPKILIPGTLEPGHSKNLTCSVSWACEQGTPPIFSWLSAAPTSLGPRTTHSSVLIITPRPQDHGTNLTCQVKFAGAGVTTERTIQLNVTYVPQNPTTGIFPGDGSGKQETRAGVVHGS

B1: S006-NB147-225-H5 (Fc fusion)
chain: EVQVVESGGGLVQPGGSLRLSCAASGFTFSNYAMSWVRQAPGKGLEWVAEINSGGDNTYYAYFVKGRFTISRDNAKNSLYLQMNSLKPEDTATYYCAREEENAGTILQGQGTQVTVSS[letters of human IgG1 Fc with changes left out]
notes: also called humanized VHH-Fc
Turning to B1, the binding result with murine CD33-His protein is reported as “no binding (tested: 100 nM)”. Moreover, in the assay with human CD33-C2-his, the 50% effective concentration (EC50 (read off the curve)) was ~0.06 nM.

B2: S006-NB146-60-H3 (Fc fusion)
chain: EVQLVESGGGLVQPGGSLRLSCAASRSTSSLSLMSWHRQAPGKQRELVASITSGGKANYVDSVKGRFTISRDNAKNSLYLQMNSLRAEDTAVYYCHAYDRAGTASGFGAAWGQGTMVTVSS[letters of human IgG1 Fc with changes left out]
notes: also called humanized VHH-Fc
As to B2, the binding result with murine CD33-His protein and with human CD33-C2-his was “no binding (tested: 100 nM)” in each case.

B3: S006-NB146-60-H6 (Fc fusion)
chain: EVQLVESGGGLVQPGGSLRLSCAASRSTSSLSLMSWHRQAPGKQRELVASITSGGKANYVDSVKGRFTISRNDAKNSLYLQMNSLRAEDTAVYYCHAYDRAGTASGFGAAWGQGTMVTVSS[letters of human IgG1 Fc with changes left out]
notes: also called humanized VHH-Fc
Turning to B3, the binding result with murine CD33-His protein and in the assay with human CD33-C2-his was “no binding (tested: 100 nM)” in each case.

B4: S006-NB146-60-H5 (Fc fusion)
chain: EVQLVESGGGLVQPGGSLRLSCAASRSTSSLSLMSWHRQAPGKQRELVASITSGGKANYVDSVKGRFTISRDDAKNSLYLQMNSLRAEDTAVYYCHAYDRAGTASGFGAAWGQGTMVTVSS[letters of human IgG1 Fc with changes left out]
notes: also called humanized VHH-Fc
In the case of B4, the binding result with murine CD33-His protein and with human CD33-C2-his was “no binding (tested: 100 nM)” each time.

B5: S006-NB146-60-H4 (Fc fusion)
chain: EVQLVESGGGLVQPGGSLRLSCAASRSTSSLSLMSWHRQAPGKQRELVASITSGGKANYVDSVKGRFTMSRDNAKNSVYLQMNSLRAEDTAVYYCHAYDRAGTASGFGAAWGQGTMVTVSS[letters of human IgG1 Fc with changes left out]
notes: also called humanized VHH-Fc
As to B5, the binding result with murine CD33-His protein and with human CD33-C2-his was “no binding (tested: 100 nM)” throughout.

B6: S006-NB146-173-H2 (Fc fusion)
chain: EVQLVESGGGLVQPGGSLRLSCAASGFTFSLHSMGWYRQAPGKQRELVAGISRDGDSNYLSSLAGRFTISRDNAKNSLYLQMNSLRAEDTAVYYCNARTSPWSAALWGQGTMVTVSS[letters of human IgG1 Fc with changes left out]
notes: also called humanized VHH-Fc
For B6, the binding result in the assay with murine CD33-His protein was “no binding (tested: 100 nM)”; with human CD33-C2-his it was “binds”.

B7: S006-NB146-173-H6 (Fc fusion)
chain: EVQLVESGGGLVQPGGSLRLSCAASGSTLSLHSMGWYRQAPGKQRELVAGISRDGDSNYLSSLAGRFTISRDGTKNSVYLQMNSLRAEDTAVYYCNARTSPWSAALWGQGTMVTVSS[letters of human IgG1 Fc with changes left out]
Consider B7, for which, in the assay with monkey CD33-his protein, the dissociation constant Kd was found to be 16.1 nM, the off-rate (koff) was determined as 0.0052 s⁻¹ and the on-rate constant (kon) stood at 323000 M⁻¹ s⁻¹. For the same molecule, in the assay with human CD33-his protein, the affinity, expressed as Kd, was 7.6 nM; the koff is 0.00163 s⁻¹; the kon came out at 214000 M⁻¹ s⁻¹.

B8: S006-NB146-173-H5 (Fc fusion)
chain: EVQLVESGGGLVQPGGSLRLSCAASGSTLSLHSMGWYRQAPGKQRELVAGISRDGDSNYLSSLAGRFTISRDGTKNSLYLQMNSLRAEDTAVYYCNARTSPWSAALWGQGTMVTVSS[letters of human IgG1 Fc with changes left out]
For B8, in the assay with monkey CD33-his protein, the Kd is 95.1 nM, the dissociation rate constant (koff) amounted to 0.0144 s⁻¹ and the on-rate constant (kon) was 152000 M⁻¹ s⁻¹. Also, in the assay with human CD33-his protein, the Kd is 61.2 nM, the off-rate (koff) turned out to be 0.00611 s⁻¹ and the kon stood at 99900 M⁻¹ s⁻¹.

B9: S006-NB146-39-aH9 (Fc fusion)
chain: EVQLVESGGGLVQPGGSLRLSCAASGIILDYYPIGWFRQAPGKEREGVAFITNSDSSTIYTNYADSVKGRFTISRDKNSLYLQMNSLRAEDTAVYYCAARSTYIVGRNENALNSADYDYWGQGTMVTVSS[letters of human IgG1 Fc with changes left out]
With B9, in the assay with monkey CD33-his protein, the equilibrium dissociation constant (Kd) turned out to be 42.6 nM, the off-rate (koff) was determined as 0.0185 s⁻¹ and the association rate constant (kon) worked out at 434000 M⁻¹ s⁻¹. In the assay with human CD33-his protein, binding was characterised by a dissociation constant (Kd) of 5.25 nM, the koff was determined as 0.00134 s⁻¹ and the on-rate (kon) was determined as 255000 M⁻¹ s⁻¹.

B10: S006-NB146-39-aH8 (Fc fusion)
chain: EVQLVESGGGLVQPGGSLRLSCAASGIILDYYPIGWFRQAPGKEREGVAFITNSDDSTIYTNYADSVKGRFTISRDKNSLYLQMNSLRAEDTAVYYCAARSTYIVGRNENALNSADYDYWGQGTMVTVSS[letters of human IgG1 Fc with changes left out]
In the assay with monkey CD33-his protein, B10 had a dissociation constant Kd of 47.8 nM, a dissociation rate constant (koff) of 0.0177 s⁻¹ and an association rate constant (kon) of 371000 M⁻¹ s⁻¹. In the assay with human CD33-his protein, this molecule gave a Kd of 4.42 nM, an off-rate (koff) of 0.0009 s⁻¹ and an on-rate constant (kon) of 204000 M⁻¹ s⁻¹.

B11: S006-NB146-39-aH15 (Fc fusion)
chain: EVQLVESGGGLVQPGGSLRLSCAASGIILDYYPIGWFRQAPGKGREGVAFITNSDDSTIYTNYADSVKGRFTISRDKNSLYLQMNSLRAEDTAVYYCAARSTYIVGRNENALNSADYDYWGQGTMVTVSS[letters of human IgG1 Fc with changes left out]
In the assay with monkey CD33-his protein, B11 gave a Kd of 55.7 nM, a koff of 0.0171 s⁻¹ and an on-rate (kon) of 308000 M⁻¹ s⁻¹. In the assay with human CD33-his protein, this molecule displayed a Kd of 5.77 nM, a koff of 0.00091 s⁻¹ and a kon of 158000 M⁻¹ s⁻¹.

B12: S006-NB146-39-aH13 (Fc fusion)
chain: EVQLVESGGGLVQPGGSLRLSCAASGIILDYYPIGWFRQAPGKEREGVAFITNSDSSTIYTNYADSVKGRFTISREKNTLYLQMNSLRAEDTAVYYCAARSTYIVGRNENALNSADYDYWGQGTMVTVSS[letters of human IgG1 Fc with changes left out]
In the assay with monkey CD33-his protein, B12 returned a Kd of 61.4 nM, an off-rate constant (koff) of 0.0235 s⁻¹ and a kon of 383000 M⁻¹ s⁻¹. Further, in the assay with human CD33-his protein, the dissociation constant (Kd) was determined as 8.43 nM, the off-rate constant (koff) was 0.00195 s⁻¹ and the on-rate (kon) came to 231000 M⁻¹ s⁻¹.

B13: S006-NB146-39-aH11 (Fc fusion)
chain: EVQLVESGGGLVQPGGSLRLSCTAPGIILDYYPIGWFRQAPGKEREGVAFITNSDSSTIYTNYADSVKGRFTISRDKNSLYLQMNSLRAEDTAVYYCAARSTYIVGRNENALNSADYDYWGQGTMVTVSS[letters of human IgG1 Fc with changes left out]
With B13, in the assay with monkey CD33-his protein, the Kd came to 2.72 nM, the koff is 0.00145 s⁻¹ and the association rate constant (kon) is 534000 M⁻¹ s⁻¹. In the assay with human CD33-his protein, the Kd came to 0.538 nM, the koff came to 0.000151 s⁻¹ and the association rate constant (kon) is 280000 M⁻¹ s⁻¹.

B14: S006-NB146-39-aH12 (Fc fusion)
chain: EVQLVESGGGLVQPGGSLRLSCAASGIILDYYPIGWFRQAPGKEREGVAFITNSDDSTIYTNYADSVKGRFTISREKNTLYLQMNSLRAEDTAVYYCAARSTYIVGRNENALNSADYDYWGQGTMVTVSS[letters of human IgG1 Fc with changes left out]
On to B14, for which, in the assay with monkey CD33-his protein, the Kd came out at 70.2 nM, the dissociation rate constant (koff) is 0.0265 s⁻¹ and the on-rate constant (kon) amounted to 377000 M⁻¹ s⁻¹. In addition, in the assay with human CD33-his protein, the affinity, expressed as Kd, was 7.21 nM; the koff came to 0.0015 s⁻¹; the kon was determined as 208000 M⁻¹ s⁻¹.

B15: S006-NB146-39-aH10 (Fc fusion)
chain: EVQLVESGGGLVQPGGSLRLSCTAPGIILDYYPIGWFRQAPGKEREGVAFITNSDDSTIYTNYADSVKGRFTISRDKNSLYLQMNSLRAEDTAVYYCAARSTYIVGRNENALNSADYDYWGQGTMVTVSS[letters of human IgG1 Fc with changes left out]
In the assay with monkey CD33-his protein, B15 came in with a Kd of 2.27 nM, a dissociation rate constant (koff) of 0.000829 s⁻¹ and an association rate constant (kon) of 365000 M⁻¹ s⁻¹. In the assay with human CD33-his protein, this molecule returned a dissociation constant Kd of 0.395 nM, a koff of 7.85e-05 s⁻¹ and an association rate constant (kon) of 199000 M⁻¹ s⁻¹.

The values are drawn from patent publication US20240124575A1 (SIMCERE ZAIMING PHARMACEUTICAL, published 2024).
